Here are results for 71 molecules from PubChem BioAssay AID488969 (Vanderbilt High Throughput Screening Facility, 2010).

The structures appear in SMILES notation. Whole data set: some 110,000 compounds, median “z-score” near -0.1, cut for the highest 2% near 2. The list shows a part of the results. The source made the active and inactive calls.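 How the source made its calls: active means z-score in the third read window above 3 or below -3; inactive means the rest.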

This assay has as its target Metabotropic glutamate receptor 8 (Rattus norvegicus) (UniProt P70579). Briefly: rat mGluR8 modulators via GIRK flux, primary screen, cell-based, thallium flux, HTS (AID 488969). The note with it: HEK293 rat mGluR8, GIRK (G protein-gated inwardly rectifying potassium channel) thallium flux, FluoZin2; at 10 µM; stronger effect = higher value; submaximal glutamate (EC20) added with thallium.
Sequence of UniProt P70579 (P70579 whole entry, looked up): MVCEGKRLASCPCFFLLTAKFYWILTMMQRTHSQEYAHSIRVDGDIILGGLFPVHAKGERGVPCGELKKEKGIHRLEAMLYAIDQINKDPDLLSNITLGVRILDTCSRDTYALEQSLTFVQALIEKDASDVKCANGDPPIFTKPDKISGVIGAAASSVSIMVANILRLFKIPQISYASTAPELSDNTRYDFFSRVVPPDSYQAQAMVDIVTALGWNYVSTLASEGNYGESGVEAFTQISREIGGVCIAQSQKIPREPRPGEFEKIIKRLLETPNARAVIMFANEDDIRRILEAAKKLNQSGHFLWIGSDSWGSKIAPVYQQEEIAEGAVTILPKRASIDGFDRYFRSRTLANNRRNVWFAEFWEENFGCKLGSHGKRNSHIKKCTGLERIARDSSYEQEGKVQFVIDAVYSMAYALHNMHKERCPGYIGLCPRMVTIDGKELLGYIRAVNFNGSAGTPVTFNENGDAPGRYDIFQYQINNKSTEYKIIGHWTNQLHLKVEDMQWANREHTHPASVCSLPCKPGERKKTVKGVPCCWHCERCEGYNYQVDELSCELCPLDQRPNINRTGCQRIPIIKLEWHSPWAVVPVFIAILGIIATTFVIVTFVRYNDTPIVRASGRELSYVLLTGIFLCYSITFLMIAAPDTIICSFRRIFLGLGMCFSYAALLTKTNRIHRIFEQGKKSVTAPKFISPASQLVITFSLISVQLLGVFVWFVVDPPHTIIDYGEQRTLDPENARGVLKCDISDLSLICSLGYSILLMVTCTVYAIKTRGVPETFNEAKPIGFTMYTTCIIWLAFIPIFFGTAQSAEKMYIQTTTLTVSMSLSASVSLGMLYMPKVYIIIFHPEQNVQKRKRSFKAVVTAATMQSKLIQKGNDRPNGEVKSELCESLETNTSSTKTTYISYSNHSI
In the case of `CCOc1ccc(NC(=O)N2CC=C(n3c(=O)[nH]c4ccccc43)CC2)cc1`, the z-score worked out at 0.0976.
Next, `CCn1c(=O)c2cc(C(=O)NCCN3CCOCC3)sc2c2ccccc21`: -0.398.
Next, `CCn1cc([N+](=O)[O-])c(C(=O)Nc2ccc(Cn3nc(C)cc3C)cc2)n1`: -0.116; `CC(C)=C1C(=O)NN(c2ccc(F)c(Cl)c2)C1=O`: -0.33; `Cc1oc2c(C)c(O)ccc2c(=O)c1-c1cnn(-c2ccccc2)c1`: 0.0462.
In turn, `O=C(O)CCCCCNC(=O)CCn1cnc2ccccc2c1=O` yielded a z-score of 0.161.
Under `O=C(CSc1nc(-c2ccc(Cl)cc2)cs1)Nc1cccc([N+](=O)[O-])c1` stands -0.147; under `COc1ccc(S(=O)(=O)n2nc(-c3ccc(Cl)cc3)cc2N)cc1OC`, -0.0966; under `O=S(=O)(c1ccc(F)cc1)N1CCN(c2ccccc2)CC1`, -0.635.
As for `COC(=O)/C=C1/N/C(=N\c2nc(C)cc(C)n2)N(c2ccccc2)C1=O`, the z-score was -0.333.
Under `Cc1ccc(S(=O)(=O)Nc2cc(C(F)(F)F)ccc2N2CCOCC2)c(C)c1` stands -0.0267.
Next, `COC(=O)c1ccc(NC(=O)CSc2nnc(-c3ccccc3)n2C)cc1`: -0.0995; `COc1ccc(C(C)NC(=O)c2ccccc2Cl)cc1OC` (stereo unspecified): -0.409; `O=C(N1CCN(c2cccc(Cl)c2)CC1)C1(S(=O)(=O)c2ccc(Cl)cc2)CC1`: 0.0467.
Next, `CCCOc1ccc(Br)cc1CSC(=N)N`: 1.51.
Molecule `O=C(CCN1C(=O)c2ccccc2C1=O)Nc1nc2ccccc2s1` displayed a z-score of -0.405.
Next, `CC1CCN(CC(=O)N2CCCc3c2c(=O)oc2ccc(OCc4ccccc4)cc32)CC1`: 0.947; `O=S1(=O)C=CC(Nc2cccc(Cl)c2)C1` (stereo unspecified): 0.506.
The molecule `O=C(CN1CCOCC1)Nc1ccccc1Sc1ccc(Cl)cc1` displayed a z-score of -0.195.
Under `Cc1ccc(C(=O)N/C(=C/c2ccc(-c3cccc([N+](=O)[O-])c3)o2)C(=O)NC(C)(C)C)cc1` stands -0.296.
Under `C/C(CC(=O)Nc1ccc(OCc2ccccc2)cc1)=N\NC(=O)C(=O)Nc1ccc(C)c(Cl)c1` stands -0.132; under `CCOC(=O)C1[C@H]2C(=O)N(CCCOC)C[C@]23C=C[C@H]1O3` (stereo partly specified), -0.0146; under `Nc1sccc1C(=O)c1ccc(Cl)cc1`, -0.434.
Next, `Cc1nc2ncnn2c(N2CCN(C(=O)c3cccc(F)c3)CC2)c1C`: 0.262; `Cc1cccc(NC(=O)c2cc(NC(=O)C3CCCCC3C(=O)O)ccc2Cl)n1` (stereo unspecified): -0.0619; `Cc1ccc(SCC(=O)Nc2ccc(-c3nnc(-c4ccco4)o3)cc2)cc1`: 0.165.
For the molecule `Cc1ccc(-n2nc3cc(C)c(N)cc3n2)cc1`, the z-score worked out at 0.00677.
In turn, `Fc1ccc(C(c2nnnn2C2CCCC2)N2CCN(Cc3ccncc3)CC2)cc1` (stereo unspecified) had a z-score of -0.208.
Next, `Cc1cc2n(n1)SC(Nc1cccc3ccccc13)N2` (stereo unspecified): -0.209; `COC(=O)c1ccccc1NC(=O)c1ccc(COc2ccccc2)o1`: -0.151.
Next, `CC(/C=N/Nc1nnc2c(n1)[nH]c1ccccc12)=C\c1ccco1`: -0.207; `CC(C)NC(=O)C(=O)N/N=C/c1ccco1`: -0.0707; `CCN(CC)c1ccc(NC(=O)COc2ccccc2C)cc1S(=O)(=O)Nc1ccccc1OC`: 0.543.
Under `CCOc1ccc(C(=O)NC2CCN(C(=O)NCc3ccccc3)CC2)cc1` stands -0.171; under `CCCc1nc2ccccc2c(=O)n1N`, -0.257.
In turn, `CN(C)S(=O)(=O)N(CC(=O)Nc1ccc(F)c(F)c1)c1ccccc1` showed a z-score of -0.415.
As for `CC1(C)NC(=O)N(CC(O)CNC23CC4CC(CC(C4)C2)C3)C1=O` (stereo unspecified), the z-score is 0.426.
Under `O=c1[nH]cnc2sc3c(c12)CCN(Cc1ccccc1)C3` stands 0.233; under `CCCCCSc1nc2c(c(=O)[nH]c(=O)n2C)n1CC`, -0.511; under `Cc1nc(SCC(=O)NCC(F)(F)F)c2c(-c3cccs3)csc2n1`, 0.183.
For `O=C(NC(=S)Nc1ccccc1N1CCCC1)c1ccc([N+](=O)[O-])cc1`, the z-score was active: 14.4.
Under `CCCCn1c(-c2csc3ccccc23)n[nH]c1=S` stands 2.3; under `N#C/C(=N\Nc1ccccc1Cl)C(=O)c1ccccc1`, -1.27; under `CCc1ccc(C(C)NC(=O)/C(C#N)=C\c2cn[nH]c2-c2ccccc2)cc1` (stereo unspecified), -0.736.
Next, `Cc1ccc(S(=O)(=O)N(C)C)cc1NC(=O)c1cncc(Br)c1`: 0.0137; `O=C(CNC(=O)c1ccc2c(c1)OCO2)N/N=C(Br)/C=C/c1ccccc1`: -0.492; `COc1ccccc1OCC(=O)Nc1ccc(C(N)=O)cc1`: -0.194.
`CCCN(CCC)CCCNC(=O)C1c2cc(OC)c(OC)cc2C(=O)N(C)C1c1cccs1` (stereo unspecified) came in with a z-score of -0.232.
In turn, `C=CCONC(=O)c1cc(OCC(F)(F)F)ccc1OCC(F)(F)F` came in with a z-score of -0.0898.
Under `CC1(c2cccc([N+](=O)[O-])c2)CC(C)(C)N(C(=O)c2ccccc2)c2ccccc21` (stereo unspecified) stands 0.0506.
Next, `Cc1nn(-c2ccccc2)c(Cl)c1C(=O)NCC(=O)O`: -0.0811; `c1ccc(-c2nnc(-c3ccccc3)o2)cc1`: 0.0752.
`Cn1c(Sc2ccc(Cl)cc2)c(C=O)c2ccccc21`: the z-score was -0.38.
Next, `CCOC(=O)CNC(=O)CSc1nnnn1-c1ccc(C)c(C)c1`: -0.858.
Under `COc1ccc(N/C(=N\c2nc(C)cc(C)n2)NC(C)=O)cc1OC` stands 0.0664; under `CC(C)Cn1c(SC(C)C(=O)Nc2ccc3c(c2)OCCO3)nc2ccccc2c1=O` (stereo unspecified), 0.193.
Next, `CCN(CC)S(=O)(=O)c1cc(F)ccc1OC`: 0.00236; `CC(C)CC(=O)Nc1ccc(C(=O)NNC(=O)C(c2ccccc2)c2ccccc2)cc1`: -0.258; `Cc1c(Cc2ccccc2)c(=O)oc2cc(OC(=O)c3ccccc3)ccc12`: -0.135.
Molecule `Cc1cccc(CN2CCN(CC(=O)NCc3cccs3)C2=O)c1` showed a z-score of 0.281.
Next, `c1ccc(Nc2cc(-c3ccccc3)nc3ncnn23)cc1`: 0.00169; `O=C(CCC1CCCCC1)NCc1cccs1`: -0.322.
Under `COc1ccccc1NC(=S)NCCSc1ccc(Cl)cc1` stands 0.711; under `CCC(=O)Nc1nnc(-c2ccco2)o1`, 2.14; under `O=c1ccc2cc(S(=O)(=O)N3CCN(c4cc(Cl)ccc4Cl)CC3)ccc2o1`, 0.116.
`CCc1ccccc1NC(=S)N(CCCN1CCOCC1)Cc1ccccn1`: the z-score is -0.307.
Under `CCc1nnc(NC(=O)CSc2nnc(C)n2-c2ccc(C)cc2)s1` stands 0.368; under `COc1ccc2nc(NC(=O)C3=NN(c4ccccc4)C(=O)CC3)sc2c1`, -0.434; under `O=C(OC1CCOC1=O)c1cncc(Br)c1` (stereo unspecified), -0.105.
Next, `C/C(=N/NC(=O)C1COc2ccccc2O1)c1ccco1` (stereo unspecified): -0.0484; `COc1cccc(C2C3(C#N)C(N)=NC(OC)(OC)C23C#N)c1` (stereo unspecified): 1.02.
